Reference: PubChem BioAssay AID1159614 (National Center for Advancing Translational Sciences (NCATS), 2016)
In all, about 45,000 compounds went through this assay and about 65 (0.1%) were called active. The call rests on the fitted dose curve; in most records, active means well fitted activation curve with a large enough effect; inconclusive means small, poorly fitted or top-dose-only effect; inactive means no such curve, though single readings can be large or run the other way. The list shows a part of the results.

These compounds were tested against Galactocerebrosidase (Homo sapiens) (UniProt P54803) (assay: A Novel Cell-Based Assay to Identify Small Molecules for B -Galactocerebrosidase). Details: 145M-Twi-hGALC-G270D cells (Twitcher mouse brain line with human GALC G270D), HMU-beta-Gal fluorescence, 48 h; series mostly up to 57.5 µM; activation: at the top concentration.
In short: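 Mutant human GALC (G270D), stably expressed in a Twitcher mouse brain cell line lacking endogenous GALC, is measured in live-treated cells via 6-hexadecanoylamino-4-methylumbelliferyl-β-galactoside hydrolysis (0.1 mM final, pH 5.2) with fluorescent detection.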
Further: 0% is about no effect; nearly all actives have a fitted effect of over 65% in size.

UniProt P54803, sequence (P54803 whole entry, looked up): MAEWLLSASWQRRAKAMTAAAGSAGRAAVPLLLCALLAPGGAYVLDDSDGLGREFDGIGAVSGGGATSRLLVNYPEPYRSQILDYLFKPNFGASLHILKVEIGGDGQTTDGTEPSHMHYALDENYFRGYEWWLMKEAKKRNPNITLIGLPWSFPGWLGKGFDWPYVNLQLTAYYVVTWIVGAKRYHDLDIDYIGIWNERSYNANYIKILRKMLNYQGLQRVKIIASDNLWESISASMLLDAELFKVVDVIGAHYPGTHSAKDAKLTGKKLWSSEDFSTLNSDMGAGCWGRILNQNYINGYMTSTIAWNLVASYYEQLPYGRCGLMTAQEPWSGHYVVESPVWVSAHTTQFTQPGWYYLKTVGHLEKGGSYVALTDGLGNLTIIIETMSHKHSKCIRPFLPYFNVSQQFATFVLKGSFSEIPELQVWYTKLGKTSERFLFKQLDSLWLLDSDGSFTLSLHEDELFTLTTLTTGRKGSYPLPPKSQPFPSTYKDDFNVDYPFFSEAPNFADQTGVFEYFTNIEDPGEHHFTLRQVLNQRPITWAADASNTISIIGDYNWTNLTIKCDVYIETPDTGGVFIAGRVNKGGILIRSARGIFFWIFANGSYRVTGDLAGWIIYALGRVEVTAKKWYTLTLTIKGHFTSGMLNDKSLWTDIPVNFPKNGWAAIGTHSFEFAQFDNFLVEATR

activation, inactive:
Cc1cc(C)cc(NC(=O)Cn2cc(S(=O)(=O)NC(C)(C)C)c(S(=O)(=O)NC(C)(C)C)c2)c1 -5.11%
CCOc1ccccc1NC(=O)CSc1nnc2[nH]c(=O)cc(-c3ccccc3)n12 -2.05%
COc1ccc(-c2cc(C(F)(F)F)nc(S(C)(=O)=O)n2)cc1 -7.56%
CCOC(=O)c1sc2ccccc2c1S(=O)(=O)Nc1ccc(CC)cc1 -37.6%
CCOc1ccc(N2CC(NC(=O)/C=C\c3ccc4c(c3)OCO4)CC2=O)cc1 (stereo not drawn) -9.82%
COc1ccc(-n2ccnc(NCc3ccccc3OC)c2=O)cc1 -12.4%
CNC(=O)c1c(NC(=O)c2ccc(S(=O)(=O)N3CCCCC3)cc2)sc2c1CCC2 -3.42%
COc1ccc(CNC(=O)CN2C(=O)COc3ccc(S(=O)(=O)Nc4ccccc4)cc32)cc1 -30.2%
CCOC(=O)c1cc2c(=O)n3ccccc3nc2n(C(C)C)c1=NC(=O)c1cc2ccccc2o1 -6.24%
COc1ccc(-n2nc(C(=O)N3CCCC(C)C3)c3c4ccccc4n(C)c3c2=O)cc1 (stereo not drawn) 4.6%
CCc1ccc(C(=O)c2cn(CC(=O)NC3CCCCC3)c3nc(C)ccc3c2=O)cc1 2.35%
O=C(c1ccccc1)n1nc(-c2ccccc2)nc1NCc1ccc(F)cc1 -21.4%
O=C(Nc1ccc(F)c(F)c1)c1cc(S(=O)(=O)NC2CCCCCC2)ccc1F -17.6%
COc1ccc(NS(=O)(=O)c2cc(Br)cc3c2N(C(=O)C2CC2)CC3)cc1OC -12%
CCCCN(CCCC)CCNC(=O)Cn1nc(C)n2c(cc3sccc32)c1=O -21.7%
COc1cccc(CNC(=O)c2ccc3c(c2)c(C)c(C)n3Cc2ccccc2)c1OC -9.92%
CC(C)c1ccc(NC(=O)CS(=O)(=O)c2cccc3nsnc23)cc1 -12.6%
CSc1nc2c(c(=O)[nH]1)C(c1cccc(F)c1F)CC(=O)N2 (stereo not drawn) -11.4%
NS(=O)(=O)c1ccc(CCNc2nccn(-c3cccc(C(F)(F)F)c3)c2=O)cc1 -15.1%
O=S(=O)(Nc1cc(F)ccc1F)c1ccc2[nH]c3c(c2c1)CCCC3 -10.1%
CC(C)(C)C(=O)Nc1ccc2nc(SCC(=O)N3CCOCC3)sc2c1 -1.02%
O=C(Cc1ccccc1)NC1CC(=O)N(c2ccccc2)C1 (stereo not drawn) -2.48%
Cc1cc(-c2nc3ncccc3o2)ccc1NC(=O)COc1ccccc1C -10.7%
CCOC(=O)c1ccccc1NC(=O)CSc1ccc(-c2cccs2)nn1 -4.78%
Cc1ccc2occ(CC(=O)N(Cc3ccc(Cl)cc3)C3CCS(=O)(=O)C3)c2c1 (stereo not drawn) -11.4%
COc1ccc(-c2cc(C(F)(F)F)nc(SCCC(=O)Nc3ccccc3F)n2)cc1 -13.5%
O=c1c2oc3ccccc3c2n(Cc2cccc(Cl)c2)c(=O)n1Cc1ccco1 -4.23%
CCN(CC)c1ccc(NC(=O)c2cnc3c(-c4ccccc4)c(C)nn3c2C)c(C)c1 -15.4%
Cc1c(NC(=O)c2cc(-c3ccc(F)cc3)on2)c(=O)n(-c2ccccc2)n1C -9.4%
Cc1nnc(N2CCN(C(=O)NC(C)C)CC2)c2nn(-c3ccccc3)c(C)c12 -22%
CCc1ccc(Nc2nn(-c3ccc(OC(F)(F)F)cc3)nc2C(C)=O)cc1 2.32%
Cn1cc(S(=O)(=O)c2cccc(Cl)c2)c(=O)c2cc(F)c(N3CCN(c4ccc(F)cc4)CC3)cc21 -11.4%
Cc1ccc(-c2noc(CNS(=O)(=O)c3ccc(F)cc3)n2)cc1 -12.1%
Cc1cccc(OCC(=O)Nc2nc3c(s2)CC(C(C)(C)C)CC3)c1C (stereo not drawn) -17.7%
COc1ccccc1N1CCN(C(=O)CN2C(=O)COc3ccc(S(=O)(=O)N4CCCCCC4)cc32)CC1 -6.98%
Cn1nnc2c(N3CCN(c4ccccc4)CC3)ncnc21 -18.9%
COCCn1c(SCC(=O)c2ccc(C)cc2C)nc2cc(C(=O)NC3CCCC3)ccc2c1=O -8.88%
O=C(c1noc2c1CCCCC2)N1CCN(c2cccc(C(F)(F)F)c2)CC1 -34.4%
CC(=O)c1c(C)oc2c(Br)cc(NS(=O)(=O)c3ccc(Br)cc3)cc12 -26.5%
CC(C)c1ccc(NC(=O)c2cc(S(=O)(=O)N3CCCCC3)cn2C)cc1 9.36%
COc1ccccc1CNc1nc2ccc(Cl)cc2n2cnnc12 -23.4%
COC(=O)c1cc(NC(=O)c2nn(C)c3c2CSc2ccccc2-3)cc(C(=O)OC)c1 1.6%
Cc1ccc(Cl)cc1N1CCN(C(=O)C2CCN(S(=O)(=O)c3cccc4nonc34)CC2)CC1 -19.2%
Cc1ccccc1OC(=O)CSc1nnc(-c2ccc3c(c2)OCO3)o1 -5.65%
Cc1ccc(C(=O)Nc2ccc(S(=O)(=O)O)c3cc(S(=O)(=O)O)cc(S(=O)(=O)O)c23)cc1NC(=O)c1cccc(NC(=O)Nc2cccc(C(=O)Nc3cc(C(=O)Nc4ccc(S(=O)(=O)O)c5cc(S(=O)(=O)O)cc(S(=O)(=O)O)c45)ccc3C)c2)c1 -14.9%
CN1CCN(C(=O)Cn2c(-c3cccs3)cc3cc(Cl)ccc32)CC1 -16%
CC(=O)Nc1ccc(S(=O)(=O)Nc2ccc([N+](=O)[O-])cc2)cc1 -14.2%
CCOc1ccc(N(CC)S(=O)(=O)N2CCCC(C(=O)Nc3cc(Cl)ccc3C)C2)cc1 (stereo not drawn) -9.52%
COC(=O)[C@H]1[C@H]2C[C@@H]3c4[nH]c5cc(OC)ccc5c4CCN3C[C@H]2C[C@@H](OC(=O)/C=C/c2ccc(O)c(OC)c2)[C@@H]1OC -6.21%
CC(C)COc1ccc(C2=NC(c3ccncc3)=Nc3ccc(F)cc3N2)cc1 17.9%
Cc1ccc(-c2n[nH]c3c2C(c2cccc(O)c2)N(c2ccc(C(=O)O)cc2)C3=O)cc1 (stereo not drawn) -10%
CCN(CC)CCNC(=O)c1ccc(CSc2nc3ccncc3n2Cc2cccc(F)c2)cc1 -33.5%
CC(C)(C)c1ccc(C(=O)N2CCC(c3nc(-c4ccc(S(=O)(=O)N5CCCC5)cc4)no3)CC2)cc1 -10.4%
CCCCN(CC)CCCNC(=O)Cn1ncc2c3ccccc3n(Cc3ccccc3F)c2c1=O -9.2%
CCOc1ccc(-c2cc3c(=O)n(Cc4nc(-c5ccc(OC(C)C)cc5)oc4C)ccn3n2)cc1Cl 12.4%
O=C(CCCn1c(=O)c2ccccc2n(CC(=O)Nc2cccc(C(F)(F)F)c2)c1=O)NCc1ccc2c(c1)OCO2 2.32%
Cc1ccccc1-c1nc(CN2CCC(C(=O)NCCc3ccccc3)CC2)c(C)o1 -10.8%
CCCN(CCC)S(=O)(=O)c1ccc2c(c1)N(CC(=O)NCc1ccc(F)cc1Cl)C(=O)CS2 -9.26%
O=C(Cn1nc(N2CCN(c3ccccc3)CC2)ccc1=O)Nc1ccc(F)cc1F -12.3%
O=C(Oc1ccccc1)c1cccc(C(=O)Oc2ccccc2)c1 -12.7% [at 129 µM]
COc1cc(C2SC[C@H]3C(=O)N(c4ccccc4)C(=O)N23)cc(OC)c1OC (stereo partly drawn) -39.2%
COc1ccc(CNC(=O)C2CCCN(C(=O)N3CCOc4ccccc43)C2)cc1 (stereo not drawn) -25.3%
Cc1ccc(S(=O)(=O)c2nnn3c2nc(NC(C)c2ccccc2)c2sccc23)cc1 (stereo not drawn) 13.8%
COc1cccc(N2CCN(c3ncnc4c3c(-c3ccccc3)cn4-c3ccc(C)cc3)CC2)c1 -19%
O=C(NCc1cccn1Cc1ccccc1)Nc1ccc(Br)cc1F -19%
O=C(Nc1ccccc1C(=O)OCc1cc(=O)n2ccsc2n1)c1ccc(Cl)cc1 -4.94%
O=C(COCc1cc(-c2ccc(F)cc2)on1)Nc1cccc(Cl)c1Cl -13%
CCCc1cc(=O)[nH]c2nnc(SCC(=O)Nc3ccc(OC)cc3)n12 -6.41%
Cc1ccc(S(=O)(=O)NC(=O)NC2CCCCC2)cc1 -14.6%
Cc1ccc(Cl)cc1NC(=O)Nc1nnc(N2CCCC(C)C2)s1 (stereo not drawn) -11.3%
CCN(CC)S(=O)(=O)c1ccc2c(c1)nc(CN(C)C(=O)Nc1ccc(Cl)cc1)n2C -12.3%
CCOC(=O)c1c(C)[nH]c(C)c1S(=O)(=O)NCC(=O)NCc1ccc(C)cc1 -14%
COc1ccccc1CNC(=O)CCNS(=O)(=O)c1ccc2c(c1)CCCC(=O)N2 -19.4%
CCOc1ccc(N2CC(NC(=O)c3ccc(S(=O)(=O)N4CCCC4)cc3)CC2=O)cc1 (stereo not drawn) -7.16%
COCCNC(=O)c1c(-c2ccccc2)c(-c2ccccc2)nn(C)c1=O -9.12%
Cc1ccc(-n2nc3c(=O)n(CCCC(=O)NCc4ccccc4C)nc(C)c3c2C)cc1 -4.36%
Cn1c(=O)oc2cc(S(=O)(=O)N3CCC(C(=O)NCc4ccccc4)CC3)ccc21 -12.4%
Cc1ccc([N+](=O)[O-])cc1S(=O)(=O)N1CCn2cccc2C1c1ccccc1F (stereo not drawn) -3.24%
CCOC(=O)c1c(C)c(-c2ccccc2)n(CC(=O)NCc2cccc(OC)c2)c1C -10.4%
O=C(NCc1cccn1Cc1ccccc1)Nc1cccc(C(F)(F)F)c1 -18.1%
O=C(Cn1c(=O)n(Cc2ccc(Cl)cc2)c(=O)c2cccnc21)Nc1ccccc1C(F)(F)F -3.98%
CN(Cc1ccc(F)cc1)S(=O)(=O)c1nnc(NC(=O)c2ccccc2Br)s1 -21.4%
Cc1ccc(NC(=O)CNC(=O)Cn2c(C)cc3ccccc3c2=O)cc1F -10.7%
Cc1ccc(NC(=O)CSc2nc3ccc(NC(=O)c4cccs4)cc3s2)cc1 -15.3%
CCOc1cc(CNC(=O)c2ccc(Cn3c(=O)c4cccn4c4cccnc43)cc2)ccc1OC -11.3%
CCOC(=O)c1cnc2cc(C(F)(F)F)ccc2c1N1CCN(c2cccc(Cl)c2)CC1 -19%
CCOc1ccccc1C(=O)Nc1ccc(S(=O)(=O)Nc2onc(C)c2C)cc1 -12.5%
CCOc1cccc(C2c3[nH]c4ccccc4c3CCN2C(=O)c2ccccc2F)c1 (stereo not drawn) -8.83%
CC(=O)c1ccc(NC(=O)Cn2cnc3nc4c(cc3c2=O)CC(C)CC4)cc1 (stereo not drawn) -7.47%
Cc1cccc(-c2nc3scc(CCNS(=O)(=O)c4c(C)noc4C)n3n2)c1 -16.9%
CCCCC(=O)Oc1ccc2oc(-c3ccc(OC)cc3)cc(=O)c2c1 -14.1%
CCc1cc(C(N)=S)ccn1 -12.6%
CCC(Sc1nnc(C)n2c1cc1sccc12)C(=O)Nc1ccccc1F (stereo not drawn) -11.6%
